Results reported in the supplement of paper PMC4967469.
IC50 is the fitted dose that halves viability relative to control wells, and lower means more sensitive; a fit beyond the top or the lowest dose is shown as a bound at that dose. AUC is the area under the same curve over the 256-fold range up to the top dose, as a fraction; it is 1 without any effect and falls as sensitivity rises. For part of these data: Where the top dose is marked as inferred, it was calculated from the reported fits. For part of these data: Where an entry number is given, a second screen of the drug exists; the two often differ.

Columns and labels:
Test in all cases: Viability of human cancer cell lines after 72 h of drug (GDSC screen)
JNK Inhibitor VIII = compound: CCOc1nc(NC(=O)Cc2cc(OC)ccc2OC)cc(N)c1C#N [JNK Inhibitor VIII]; conditions: top dose 10 µM; top dose inferred
Protocol: (§1)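 Human cancer cell lines in 384-well plates, medium with 10% serum, drug for 72 h over a 256-fold dose range (nine 2-fold or five 4-fold steps up to the top dose). Adherent lines were fixed and stained with the nucleic acid dye Syto60, suspension lines read with resazurin; signal relative to control wells, capped at 0 and 100%. One two-parameter sigmoid per drug and line, fitted in a mixed model over all curves with the slope shared within a line.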

SB-715992 = compound: Cc1ccc(C(=O)N(CCCN)[C@@H](c2nc3cc(Cl)ccc3c(=O)n2Cc2ccccc2)C(C)C)cc1 [SB-715992]; conditions: top dose 0.128 µM; top dose inferred
Protocol: as §1

AMG-706 = compound: CC1(C)CNc2cc(NC(=O)c3cccnc3NCc3ccncc3)ccc21 [AMG-706]; conditions: top dose 2 µM; top dose inferred
Protocol: as §1

NSC-207895 = compound: CN1CCN(c2ccc([N+](=O)[O-])c3no[n+]([O-])c23)CC1 [NSC-207895]; conditions: top dose 20 µM; top dose inferred
Protocol: as §1

JQ1 = compound: Cc1sc2c(c1C)C(c1ccc(Cl)cc1)=N[C@@H](CC(=O)OC(C)(C)C)c1nnc(C)n1-2 [JQ1]
Protocol: as §1

Belinostat = compound: O=C(/C=C/c1cccc(S(=O)(=O)Nc2ccccc2)c1)NO [Belinostat]; conditions: top dose 20 µM; top dose inferred
Protocol: as §1

FTI-277 = compound: COC(=O)[C@H](CCSC)NC(=O)c1ccc(NC[C@@H](N)CS)cc1-c1ccccc1 [FTI-277]; conditions: top dose 1.024 µM; top dose inferred
Protocol: as §1

YM155 = compound: COCC[n+]1c2c(n(Cc3cnccn3)c1C)C(=O)c1ccccc1C2=O [YM155]; conditions: top dose 5.12 µM
Protocol: as §1

JNJ-26854165 = compound: c1ccc2c(CCNc3ccc(Nc4ccncc4)cc3)c[nH]c2c1 [JNJ-26854165]; conditions: top dose 10 µM
Protocol: as §1

OSI-906 = compound: C[C@]1(O)C[C@@H](c2nc(-c3ccc4ccc(-c5ccccc5)nc4c3)c3c(N)nccn32)C1 [OSI-906]; conditions: top dose 2.56 µM; top dose inferred
Protocol: as §1

[1] = top dose 1 µM, screen: GDSC drug entry 1218, top dose inferred
[2] = top dose 2.56 µM, screen: GDSC drug entry 163

Cell Line	AUC (JNK Inhibitor VIII)	IC50 (JNK Inhibitor VIII) [µM]	AUC (SB-715992)	IC50 (SB-715992) [nM]	AUC (AMG-706)	IC50 (AMG-706) [nM]	AUC (NSC-207895)	IC50 (NSC-207895) [µM]	AUC (JQ1; [1])	IC50 (JQ1; [1]) [nM]	AUC (JQ1; [2])	IC50 (JQ1; [2]) [nM]	AUC (Belinostat)	IC50 (Belinostat) [nM]	AUC (FTI-277)	IC50 (FTI-277) [nM]	AUC (YM155)	IC50 (YM155) [nM]	AUC (JNJ-26854165)	IC50 (JNJ-26854165) [µM]	AUC (OSI-906)	IC50 (OSI-906) [nM]
A673 (rhabdomyosarcoma, adherent)	0.986	> 10	0.606	15.1	0.953	> 2000	0.74	5.56	0.986	> 1000	0.967	> 2560	0.467	1030	0.99	> 1020	0.024	< 20	0.943	> 10		
CHP-134 (neuroblastoma, suspension)	0.948	> 10	0.607	17	0.924	> 2000	0.824	16.5					0.293	274			0.061	< 20				
DOK (head and neck, adherent)	0.97	> 10	0.957	> 128	0.974	> 2000	0.976	> 20	0.968	> 1000	0.762	1390			0.918	> 1020			0.777	6.29	0.575	285
DU-145 (prostate, adherent)	0.898	> 10	0.955	> 128	0.713	540	0.782	9.38					0.353	467	0.948	> 1020	0.037	< 20	0.889	> 10	0.975	> 2560
EMC-BAC-2 (lung adenocarcinoma, adherent)	0.914	> 10	0.742	45.5	0.914	> 2000	0.784	10.2	0.959	> 1000			0.41	674			0.037	< 20	0.908	> 10		
HCC-827 (lung adenocarcinoma, adherent)	0.976	> 10	0.972	> 128	0.858	> 2000	0.984	> 20					0.495	1210	0.975	> 1020	0.25	54	0.889	> 10		
HCT-116 (large intestine, adherent)	0.987	> 10			0.987	> 2000	0.976	> 20							0.965	> 1020	0.022	< 20	0.883	9.73	0.981	> 2560
HT-29 (large intestine, adherent)	0.988	> 10	0.725	34.8	0.988	> 2000	0.975	> 20	0.986	> 1000	0.511	171	0.374	562	0.922	> 1020	0.067	< 20	0.933	> 10		
HeLa (cervix, adherent)	0.984	> 10	0.872	113	0.964	> 2000	0.982	> 20							0.986	> 1020	0.262	69.4	0.927	> 10	0.955	> 2560
JHU-029 (head and neck, adherent)	0.969	> 10			0.966	> 2000			0.977	> 1000	0.707	709			0.905	> 1020			0.807	6.62	0.9	> 2560
KP-1N (pancreas, adherent)	0.964	> 10	0.444	5.6	0.971	> 2000			0.943	> 1000	0.791	1210			0.964	> 1020			0.912	> 10	0.9	> 2560
MCF7 (breast, adherent)	0.965	> 10	0.984	> 128	0.956	> 2000	0.986	> 20					0.9	> 20000	0.986	> 1020	0.541	415	0.903	> 10	0.822	1570
MDA-MB-231 (breast, adherent)	0.984	> 10	0.905	> 128	0.986	> 2000	0.959	> 20							0.978	> 1020	0.041	< 20	0.772	4.1	0.956	> 2560
MDA-MB-415 (breast, adherent)	0.962	> 10	0.896	> 128	0.948	> 2000	0.982	> 20	0.964	> 1000	0.826	2310	0.867	> 20000	0.975	> 1020	0.285	63.2			0.978	> 2560
MDA-MB-436 (breast, adherent)	0.976	> 10	0.958	> 128	0.974	> 2000	0.933	> 20					0.716	6070	0.932	> 1020	0.18	25.6	0.87	> 10	0.978	> 2560
MDA-MB-453 (breast, adherent)	0.974	> 10	0.765	51.9	0.978	> 2000	0.966	> 20	0.984	> 1000	0.666	490	0.134	< 78.1	0.964	> 1020	0.037	< 20			0.983	> 2560
NCI-H2066 (small cell lung carcinoma, adherent)	0.975	> 10			0.939	> 2000			0.956	> 1000									0.95	> 10		
OACp4C (oesophagus, adherent)	0.974	> 10	0.847	125	0.947	> 2000	0.847	19.5	0.961	> 1000			0.195	124			0.048	< 20	0.845	9.52		
PA-TU-8902 (pancreas, adherent)	0.983	> 10	0.932	> 128	0.979	> 2000	0.962	> 20	0.981	> 1000	0.898	> 2560			0.969	> 1020	0.043	< 20	0.867	> 10	0.79	1360
PC-3 (prostate, adherent)	0.919	> 10			0.924	> 2000	0.617	2.82					0.476	1060	0.983	> 1020	0.035	< 20	0.928	> 10	0.98	> 2560
PC-3 [JPC-3] (lung adenocarcinoma, adherent)	0.973	> 10	0.762	60.4	0.95	> 2000	0.89	> 20	0.964	> 1000	0.872	> 2560	0.569	2060	0.975	> 1020			0.932	> 10	0.952	> 2560
PFSK-1 (medulloblastoma, adherent)	0.888	> 10	0.727	37.1	0.873	> 2000	0.962	> 20			0.949	> 2560	0.676	4000	0.979	> 1020	0.033	< 20			0.932	> 2560
PWR-1E (prostate, adherent)	0.984	> 10			0.971	> 2000			0.986	> 1000									0.916	> 10		
SK-GT-2 (stomach, adherent)	0.974	> 10			0.964	> 2000			0.984	> 1000									0.86	9.16		
SU-DHL-10 (B-cell lymphoma, suspension)	0.998	> 10	0.407	4.77	0.998	> 2000	0.969	> 20	0.998	> 1000	0.184	27.3	0.005	< 78.1	0.997	> 1020	0.005	< 20	0.905	6.39		
SiHa (cervix, adherent)	0.984	> 10	0.981	> 128	0.954	> 2000	0.985	> 20	0.802	582	0.87	> 2560	0.944	> 20000	0.986	> 1020	0.831	3940			0.964	> 2560
U031 (kidney, adherent)	0.974	> 10	0.927	> 128	0.984	> 2000	0.981	> 20	0.942	> 1000	0.504	164	0.586	2170	0.961	> 1020			0.781	4.29	0.941	> 2560
YH-13 (glioma, adherent)	0.955	> 10	0.773	52.8	0.857	1770	0.985	> 20	0.985	> 1000			0.567	1920			0.265	65.5	0.888	> 10		
